{
  "source": "paper PMC12136788",
  "binders": {"B1": {"name": "chr16:57506169:57506170:-_ENSG00000125170_ENST00000340099|hu_hu|motif|central (ssRNA)", "RNA": "GGGAGUUCUACAGUCCGACGAUCGCCACAACUCAAAUAGUGGUUAUUUACAAGAAGGUCUGUUCCCACAAAUCAGGACCCGGAAGUAUUAAAAAACAAAACCCAAAAAACAACAAAAAACCCCACACAACCAAAAGUUUGACGCAACAGAGGAUUGAGCAUCA"}, "B2": {"name": "chr11:5855929:5855930:+_ENSMUSG00000002741_ENSMUST00000002818|mus_mus|motif|central (ssRNA)", "RNA": "GGGAGUUCUACAGUCCGACGAUCACACGUCGUACGCGGCCUUGAGCAGCACCGCUUUCGGAUCGCCUUUGUAAAGGACACGGAGGCUGUACAGCUUCAUGGCGCCGCACCUUCGGGCCGCCGGCUGAGCCCCAGACCCGCUCCCAACAGAGGAUUGAGCAUCA"}, "B3": {"name": "chr9:75414013:75414014:-_ENSMUSG00000032186_ENSMUST00000064433|mus_hu|FALSE|FALSE (ssRNA)", "RNA": "GGGAGUUCUACAGUCCGACGAUCCUGGUAAAAUGUUACAGAUUAGUGGCAUGCAGGUAUUUUACAUUUUUAAGUGCAAUGAAAAAUGCUGCUUAUUCAUUUUGCUUGAAUGGAUGAAAACAACUAAAAUAAAUGCUUAAUUAACAACAGAGGAUUGAGCAUCA"}, "B4": {"name": "chr1:60039268:60039269:+_ENSMUSG00000041040_ENSMUST00000036540|mus_mus|FALSE|FALSE (ssRNA)", "RNA": "GGGAGUUCUACAGUCCGACGAUCCUGACCACACGAUGAAGUGUGAACAGGAAUAGUGCAGAAAACAGCAGUUUACAAAUACUUCACUCAAAUCACAAACUGUUGACAUCAAAAAAACAUAAAUCACAUAAUGUACAAAUAUUGCAACAGAGGAUUGAGCAUCA"}, "B5": {"name": "chr12:493273:493274:-_ENSG00000073614_ENST00000399788|hu_mus|hu_hu_hu_mus_False|58_88 (ssRNA)", "RNA": "GGGAGUUCUACAGUCCGACGAUCUUUUCUCUCCACCACAGGGAUCUUCAGAGUAGAUCCUUGAAGUUCCCAAAAUUUUGCUAGUUGAUCCAAGAAGUCCAAUCUUACUCUAGUCAUUGCCUCAAGUUCAUUCAGGCGCUGGACCAACAGAGGAUUGAGCAUCA"}, "B6": {"name": "chr16:94664741:94664742:+_ENSMUSG00000040785_ENSMUST00000117648|mus_hu|mus_mus_mus_hu_False|38_88 (ssRNA)", "RNA": "GGGAGUUCUACAGUCCGACGAUCUGGUACUGAUCUUGGUAGCUGAUACUCAGAAGAAAGGCUGGCCAAGGGUGUAUAUAUGCUGGUGUACUGGGGCAGGCUAGGUAACACGUUUAUGUAUGCUGGCGGUGUCUGGGUGAUAUCCAACAGAGGAUUGAGCAUCA"}, "B7": {"name": "chr1:39494564:39494565:+_ENSG00000168653_ENST00000372967|hu_hu|hu_hu_hu_mus_True|28_48 (ssRNA)", "RNA": "GGGAGUUCUACAGUCCGACGAUCAUGCAUUCGCCUCAUCGUUUUGUACCGAAGCAAGCACUCUUCGAAGUCAUCGAACUCUAUCUUGCACUCUUUCUUCGCCCGGGUAUAACCGAUCCCGUGUGCACACUCUAUCCACUCUUUCAACAGAGGAUUGAGCAUCA"}, "B8": {"name": "135593560_135593680_1890_CDS_ENSG00000102241_ENST00000218364|human|control|control (ssRNA)", "RNA": "GGGAGUUCUACAGUCCGACGAUCUAACUCUUUGUCAAGAACAUUUUCAUGAAGCUCCUUUUCAGAACCUUCCUCGUCCAAAUCUUUCUCGAGACCAUUUUCUUCAAAUUCUCUUUCGGAGCCAUCUUCAGACUGUUUUUCAGACAACAGAGGAUUGAGCAUCA"}, "B9": {"name": "chr14:90871081:90871082:+_ENSG00000198668_ENST00000553542|hu_hu|FALSE|FALSE (ssRNA)", "RNA": "GGGAGUUCUACAGUCCGACGAUCUCUUUUUUUUGCAAGAGGUAAGUAAAAGAUUCAAUUUGAUUCUUCUAGAGGGGGGAAAAAGGAGUUGAAAGUAGGUCUUCAUUUUGCAGUCAUCAUCUGUACGAAUUCUUCAUAGUUGACCAACAGAGGAUUGAGCAUCA"}, "B10": {"name": "70339416_70339877_200_CDS_ENSMUSG00000018286_ENSMUST00000018430|mouse|control|control (ssRNA)", "RNA": "GGGAGUUCUACAGUCCGACGAUCAGCGGCUGAGCCUGAGCGGCAGCAGAAGAUGUGAUCGUGGAUAGGGGUCAGCUUGUCAGUCACUCGAUUGGCGAUGUAGGACCCAGUGGUUGUCCUGGAGUCCGCUCCUAGAACCACGCCCAACAGAGGAUUGAGCAUCA"}, "B11": {"name": "chr5:145543945:145543946:-_ENSG00000133706_ENST00000545646|hu_hu|hu_hu_hu_mus_True|78_78 (ssRNA)", "RNA": "GGGAGUUCUACAGUCCGACGAUCCUGAACGGCCAGUGGUGGGAAAUAAUCAAGCCAAUGUUCUGCUUCAGAAAACUUCACUAUGUCGUCAUCAGAGAGCCCAAGGGAUUUCAUAAUGUCCCACUGGUACUUAGAAGAUCCUGCCAACAGAGGAUUGAGCAUCA"}, "B12": {"name": "chr14:89307221:89307222:+_ENSG00000165533_ENST00000346301|hu_mus|hu_hu_hu_mus_False|18_88 (ssRNA)", "RNA": "GGGAGUUCUACAGUCCGACGAUCUCCUGUUUGGUUAGUGCCAGGGAGUUUCAAAGAUGUGCCAGGGCGUGGGACCUGAGCAAUAGCAUUUUCAUCCAGGAUCAUUUCAGCAAUUCCUUCCUGAUCUACAUCAAUUUCAUCUAUCAACAGAGGAUUGAGCAUCA"}, "B13": {"name": "chr1:66829163:66829164:+_ENSG00000184588_ENST00000423207|hu_mus|motif|central (ssRNA)", "RNA": "GGGAGUUCUACAGUCCGACGAUCCACGUCAGCAGCAUGCAGGCUGUUGUGAUAUGCCACAUCAGAAUGGUAAUGGUCUUCGGAAGUCAUCAUGUAGGUUACAAAGGUGUCAGAUGAGAUUUUAAACGUCUUCAGAAGGUCUCUCAACAGAGGAUUGAGCAUCA"}, "B14": {"name": "110435137_110447804_97_CDS_ENSMUSG00000044791_ENSMUST00000153838|mouse|control|control (ssRNA)", "RNA": "GGGAGUUCUACAGUCCGACGAUCUUCAGGGGUCGGGUGCUCGGGAUCGUAGAAAUCCCCCAUCUUCGGUGGCGGCUGCUGCGACGGCAGCGGCUUCAUGAGGAGCGGCUGGAGGCGGCGACGCUAGCCCCCUCCCCGCGGCAGCAACAGAGGAUUGAGCAUCA"}, "B15": {"name": "chr3:65185704:65185705:-_ENSMUSG00000027828_ENSMUST00000029414|mus_mus|FALSE|FALSE (ssRNA)", "RNA": "GGGAGUUCUACAGUCCGACGAUCCUCCUUGCCUUUUAAUAAAAUGCCCUGGUACUCUGAGUUUCCCUUUCAAUUCAUUUAAUUUCAGCAAUCUGUCAAAAACAGCCAAUAAACAAACACUGAAUUACAUUCUACUGCAUUUUUCAACAGAGGAUUGAGCAUCA"}, "B16": {"name": "chr1:94914716:94914717:-_ENSMUSG00000014602_ENSMUST00000171796|mus_hu|FALSE|FALSE (ssRNA)", "RNA": "GGGAGUUCUACAGUCCGACGAUCUAAAUAGAACAAGUCUUAUAGUUAAUUUCCGAGUUGACUGUUUCAAUGUCACUAACUAACGUAUAUUAAUUAUAAGUCUGUCUAUGCUUAAAAAAAUAUUAGAACGGCAGCAAGAACCCCCAACAGAGGAUUGAGCAUCA"}, "B17": {"name": "chr6:40426449:40426450:+_ENSMUSG00000029911_ENSMUST00000121360|perfect_dup|FALSE|FALSE (ssRNA)", "RNA": "GGGAGUUCUACAGUCCGACGAUCAACGUCACCCAUUUGGUAUACUUCACUAUCCCCUGAUCGCCACAUCUCAUUUGUUGCUAGAGAAAAUAUUGUGACUGGGUUUUUUCCUUCCACCUGUCUCAUGACAGGGUCCUGACCUACCAACAGAGGAUUGAGCAUCA"}, "B18": {"name": "chrX:71549400:71549401:+_ENSMUSG00000019087_ENSMUST00000019231|mus_hu|mus_mus_mus_hu_False|38_98 (ssRNA)", "RNA": "GGGAGUUCUACAGUCCGACGAUCGCAGUAGGAAGAGCAAACCUUUCCAGUCCAGUGCGCUGCAGGGUGGGAAAGCAACAACACGGACACCGUCCCACCUCAAUUCCCCCCACUGGCACAGGGUCACACAAUCUGGGUCAAAGACAACAGAGGAUUGAGCAUCA"}, "B19": {"name": "3496540_3496660_1799_CDS_ENSMUSG00000037486_ENSMUST00000111215|mouse|control|control (ssRNA)", "RNA": "GGGAGUUCUACAGUCCGACGAUCAGAUUUGCUUGGGGAUAUAGCUAACGCUUCUUGGUUCUCACUUUUGUUAUUACGAGAAGUUGUGGUUACAUGAUUUUCUUUCUCAGAUUCUUGUUCAGCACAGGCAACAGGCUUCUGCUCCAACAGAGGAUUGAGCAUCA"}, "B20": {"name": "chr2:216981417:216981418:+_ENSG00000079246_ENST00000392132|hu_hu|hu_hu_hu_mus_True|48_88 (ssRNA)", "RNA": "GGGAGUUCUACAGUCCGACGAUCCUGAUACUGGUCCUUGCCAGCAAGGGGAUUGUCAGUGCCAUCUGUGCCAUAGAGGACUAACGCAAUCUCAUCCUUGCUCUCCGAAAAUACCUGUCGUUGGACAAACAUAGUCAUCACUUUCAACAGAGGAUUGAGCAUCA"}, "B21": {"name": "chr4:128759998:128759999:+_ENSMUSG00000028793_ENSMUST00000168461|mus_mus|FALSE|FALSE (ssRNA)", "RNA": "GGGAGUUCUACAGUCCGACGAUCUGCACCAAGACUGGCUGUGUCUUUGGGGAAAAUUUCCUUUUGGACAUCAGCUUGAACUUCUAACCGGCUGUACUUUCCCUUGCCGCUGGAGAGAAUACCACCACUCAGUGUGCCCCCUGACAACAGAGGAUUGAGCAUCA"}, "B22": {"name": "chrX:71549762:71549763:+_ENSMUSG00000019087_ENSMUST00000019231|mus_mus|mus_mus_mus_hu_False|8_58 (ssRNA)", "RNA": "GGGAGUUCUACAGUCCGACGAUCAAACCCGUGUACUUCUUAUUGUUAGCACAACAUCACCAGAAAACGAUAACGACAGCUAAGCUGGACAGACAGUUAAGUAGUACUUCCACACUCCCAAACUCAGAGGAACCUCAAACCUUACAACAGAGGAUUGAGCAUCA"}},
  "note": "The list shows a part of the results.",
  "data": [
    {"target": "T1, UNK ZnF1-3 (human, UniProt Q9C0B0 31-174)", "T1 sequence": "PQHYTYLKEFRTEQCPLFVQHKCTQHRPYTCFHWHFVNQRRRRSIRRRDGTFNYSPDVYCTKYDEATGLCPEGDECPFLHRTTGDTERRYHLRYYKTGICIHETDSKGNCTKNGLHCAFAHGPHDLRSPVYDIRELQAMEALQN", "test": "nsRBNS (natural sequence RNA bind-n-seq); RBNS binding buffer (assumed for nsRBNS): 25 mM Tris pH 7.5, 150 mM KCl, 3 mM MgCl2, 0.01% Triton X-100, 500 ug/ml BSA, 20 U/ml SUPERase-In, 4 C; UNK is unkempt and MSI1 is Musashi-1; names of the RNAs are library labels; protein concentration not given here; high values mean tight binding", "units": {"binding signal": "enrichment R"}, "values": [
      {"binder": "B1", "binding signal": 2.81},
      {"binder": "B2", "binding signal": 0.663},
      {"binder": "B3", "binding signal": 1.03},
      {"binder": "B4", "binding signal": 1.36},
      {"binder": "B5", "binding signal": 0.931},
      {"binder": "B6", "binding signal": 1.25},
      {"binder": "B7", "binding signal": 0.68},
      {"binder": "B8", "binding signal": 0.476},
      {"binder": "B9", "binding signal": 1.23},
      {"binder": "B10", "binding signal": 1.03},
      {"binder": "B11", "binding signal": 1.28},
      {"binder": "B12", "binding signal": 0.834},
      {"binder": "B13", "binding signal": 0.855},
      {"binder": "B14", "binding signal": 0.923},
      {"binder": "B15", "binding signal": 1.18},
      {"binder": "B16", "binding signal": 1.44},
      {"binder": "B17", "binding signal": 1.13},
      {"binder": "B18", "binding signal": 1.4},
      {"binder": "B19", "binding signal": 0.419},
      {"binder": "B20", "binding signal": 1},
      {"binder": "B21", "binding signal": 1.08},
      {"binder": "B22", "binding signal": 1.21}
    ]}
  ]
}
